Measured values taken from PubChem BioAssay AID1347165 (National Center for Advancing Translational Sciences (NCATS), 2019).
About 5,700 (2.6%) of roughly 220,000 compounds were called active. The inconclusive results got no clear call from the source; some entries with a clear call stand among them for comparison. The call rests on the fitted dose curve; in most records, active means well fitted inhibition curve with a large enough effect; inconclusive means small, poorly fitted or top-dose-only effect; inactive means no such curve, though single readings can be large or run the other way. Potencies beside an inconclusive call are fits to weak or partial responses and may not hold up.

The compounds below were run against Lysine-specific demethylase 5B (Homo sapiens) (UniProt Q9UGL1) (assay: Primary screen for KDM5B Histone Demethylases FDH-coupled qHTS). Conditions: FDH-coupled NADH fluorescence (FDH is formaldehyde dehydrogenase); activity change, negative = inhibition: at 57.7 µM (top of the series) unless noted.
Chain of UniProt Q9UGL1 (Q9UGL1 whole entry, looked up, the tested form may be a part): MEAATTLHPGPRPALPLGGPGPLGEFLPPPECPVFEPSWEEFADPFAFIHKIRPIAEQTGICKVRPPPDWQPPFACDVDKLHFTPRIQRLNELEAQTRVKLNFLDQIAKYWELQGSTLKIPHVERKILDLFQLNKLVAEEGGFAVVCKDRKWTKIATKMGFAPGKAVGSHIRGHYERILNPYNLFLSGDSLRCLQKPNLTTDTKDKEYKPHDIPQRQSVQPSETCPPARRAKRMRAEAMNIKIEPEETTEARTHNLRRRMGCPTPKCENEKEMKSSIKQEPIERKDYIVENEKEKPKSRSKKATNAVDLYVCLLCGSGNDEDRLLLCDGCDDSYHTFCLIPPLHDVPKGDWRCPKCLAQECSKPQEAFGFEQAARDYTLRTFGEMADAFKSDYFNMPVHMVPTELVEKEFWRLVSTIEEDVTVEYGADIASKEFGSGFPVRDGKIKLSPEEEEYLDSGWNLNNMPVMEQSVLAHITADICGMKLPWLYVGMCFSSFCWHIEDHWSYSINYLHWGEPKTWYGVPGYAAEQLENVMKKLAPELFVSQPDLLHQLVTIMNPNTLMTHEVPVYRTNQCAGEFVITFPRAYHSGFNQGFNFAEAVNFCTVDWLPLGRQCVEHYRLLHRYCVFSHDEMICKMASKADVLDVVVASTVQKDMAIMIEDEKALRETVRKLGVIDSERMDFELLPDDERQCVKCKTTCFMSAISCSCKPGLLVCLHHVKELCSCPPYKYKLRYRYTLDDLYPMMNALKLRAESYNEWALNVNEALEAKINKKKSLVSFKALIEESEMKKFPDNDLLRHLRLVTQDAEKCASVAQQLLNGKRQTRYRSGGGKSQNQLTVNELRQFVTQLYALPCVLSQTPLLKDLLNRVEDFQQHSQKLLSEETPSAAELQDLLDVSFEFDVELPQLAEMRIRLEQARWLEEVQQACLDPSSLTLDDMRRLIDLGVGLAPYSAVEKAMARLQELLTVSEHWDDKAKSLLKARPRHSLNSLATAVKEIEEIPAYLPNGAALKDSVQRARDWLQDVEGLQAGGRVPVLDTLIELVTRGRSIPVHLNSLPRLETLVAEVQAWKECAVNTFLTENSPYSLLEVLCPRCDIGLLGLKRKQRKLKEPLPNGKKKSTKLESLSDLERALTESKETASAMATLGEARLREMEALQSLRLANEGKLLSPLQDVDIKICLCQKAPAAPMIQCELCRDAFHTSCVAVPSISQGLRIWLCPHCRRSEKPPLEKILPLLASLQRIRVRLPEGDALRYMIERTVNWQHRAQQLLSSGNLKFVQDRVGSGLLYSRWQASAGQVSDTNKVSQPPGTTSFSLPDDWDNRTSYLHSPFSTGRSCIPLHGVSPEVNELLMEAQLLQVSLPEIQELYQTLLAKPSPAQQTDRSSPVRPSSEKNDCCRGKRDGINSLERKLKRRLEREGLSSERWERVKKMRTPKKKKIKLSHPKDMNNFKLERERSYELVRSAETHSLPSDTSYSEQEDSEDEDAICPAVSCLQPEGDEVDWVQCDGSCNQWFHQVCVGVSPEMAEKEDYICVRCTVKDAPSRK
Procedure, shortened: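 Inhibition is measured as reduced NADH fluorescence generation from FDH coupling to formaldehyde release. Truncated KDM5BΔAP at 200 nM final acts on H3K4me3 peptide (12.5 µM in substrate mix) in pH 7.5 HEPES buffer with Tween-20, 30 min, room temperature.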
Further: nearly all actives have a fitted effect of over 70% in size.
Potency means the concentration at half of the fitted maximal effect; tags describe the fitted curve by direction and shape.
Wherever activity change, negative = inhibition is given: 0% is about no effect.

SMILES	Potency	activity change, negative = inhibition
O=C(CSc1nnc(-c2cccs2)o1)Oc1ccc(Cl)cc1	inconclusive: 22.4 µM [inhibitor, single point]	–
CCCCNC(=O)C1CCCN(c2nnc(C)c3c(C)n(-c4ccc(Cl)cc4)nc23)C1 (centres undefined)	inconclusive: 25.1 µM [inhibitor, partial curve, poor fit]	–
COc1cc2c(=O)c(S(=O)(=O)c3ccc(C)cc3)cn(Cc3cccc(C)c3)c2cc1OC	inconclusive: 39.8 µM [inhibitor, partial curve, poor fit]	–
COc1ccccc1C(=O)Nc1nc2ccccc2[nH]1	inconclusive: 39.8 µM [inhibitor, single point]	–
COc1ccc(OC)c(C(=O)Cn2nnc(-c3ccc(N4CCOCC4)cc3)n2)c1	inconclusive: 39.8 µM [inhibitor, single point]	–
O=S1(=O)NCC2(CCN(Cc3ccncc3)CC2)Oc2ncccc21	inconclusive: 56.2 µM [inhibitor, partial curve, poor fit]	–
CSCC(=O)N[C@H]1CCN2C(=O)c3cc(-c4ccc(F)cc4F)ccc3NC(=O)[C@H]12	inconclusive: 56.2 µM [inhibitor, single point]	–
O=C(c1ccoc1)N1CC(Oc2ccccc2-c2nc(C3CC3)no2)C1	inconclusive: 15.8 µM [inhibitor, partial curve, poor fit]	–
COCCOc1cc(-c2noc([C@@H]3CCCN3Cc3ccncc3)n2)ccn1	active: 35.5 µM	–
CN(c1ccccc1)c1cc(=O)c2ccnc(NCc3cnccn3)c2o1	inconclusive: 28.2 µM [inhibitor, partial curve]	–
Cc1ccc(C(=O)NNC(=S)NC(=O)c2ccc(C(C)(C)C)cc2)cc1	inconclusive: 39.8 µM [inhibitor, single point]	–
CNC(=O)Cn1nc(C(=O)N2CCC3(CC2)[C@H](O)C[C@@H]3O)cc1C	inactive	–
CCOC(=O)CSC1=Nc2ccccc2C2=NC(CCC(=O)NCc3ccccc3)C(=O)N12 (centres undefined)	inconclusive: 31.6 µM [inhibitor, partial curve, poor fit]	–
CCc1cccc(CC)c1NC(=O)c1nn(C)c(=O)c2ccccc12	inactive	–
Cn1cc(CN2CCN(C(=O)c3c[nH]c4ccccc34)CC2)ccc1=O	inconclusive: 14.1 µM [inhibitor, partial curve]	–
N#Cc1nc(-c2ccco2)oc1N1CCN(C(=O)c2ccccc2Cl)CC1	inconclusive: 17.8 µM [inhibitor, partial curve, poor fit]	–
CC(NC(=O)CNC(=O)c1ccc(N2CCCC2=O)cc1)c1ccc(Cl)cc1Cl (centres undefined)	inactive	–
CS(=O)(=O)Oc1ccc2c(c1)O/C(=C\c1ccc(Cl)cc1)C2=O	inactive	–
CN(C)c1ccc(C(=O)NCC2CCN(c3cc(-c4ccccc4)[nH]n3)CC2)cc1	inconclusive: 20 µM [inhibitor, partial curve, poor fit]	–
CCCC(=O)Nc1ccc(NC(=O)c2sc3ccccc3c2Cl)cc1	inconclusive: 25.1 µM [inhibitor, partial curve, poor fit]	–
CN(C)c1ccc(NC(=O)Cn2c(SCc3ccc(F)cc3)nc3cccnc32)cc1	inconclusive: 14.1 µM [inhibitor, partial curve, poor fit]	–
COc1ccc(CNC(=O)N2CCCCCC2CN2CCOCC2)cc1 (centres undefined)	inactive	–

SMILES	Potency	activity change, negative = inhibition
COc1ccc(OCc2cc(C(=O)N3CCCC3)no2)c2ccccc12	inconclusive: 22.4 µM [inhibitor, partial curve, poor fit]	–
CCc1ccc(NC(=O)CSC2=Nc3ccccc3C3=NC(CC(=O)NCc4ccc5c(c4)OCO5)C(=O)N23)cc1 (centres undefined)	inconclusive: 31.6 µM [inhibitor, partial curve, poor fit]	–
O=C(Nc1c(F)cccc1F)c1cc(-c2ccccn2)nc2ccccc12	inactive	–
O=C(O)CCCC(=O)N1CCc2cc(S(=O)(=O)NCc3ccccc3)ccc21	inactive	–
N#Cc1ccc(/C=N/Nc2ccccc2C(F)(F)F)cc1	inactive	–
CN(C)c1ccc(CNc2nc(-c3ccco3)nn2S(C)(=O)=O)cc1	inconclusive: 17.8 µM [inhibitor, single point]	–
OC(c1ccccc1)c1cc2n(n1)CCN(Cc1cncn1C1CC1)C2 (centres undefined)	inactive	–
CCOC(=O)c1ccc(NC(=O)c2cnc(N3CCCC3)nc2C)cc1	inconclusive: 39.8 µM [inhibitor, single point]	–
CC(C)=CCOc1ccc2c(-c3cc4ccccc4oc3=O)cc(=O)oc2c1	inactive	–
Cn1c(=O)c2c(nc(NCc3cccs3)n2Cc2ccc(Cl)cc2)n(C)c1=O	inactive	–
COc1ccc(-c2cc(C(=O)NC3CC3)c3c(C4CCCNC4)noc3n2)cc1 (centres undefined)	active: 79.4 µM	–
Cc1cc(-c2ccc(C)c(S(=O)(=O)N(Cc3cccs3)C(C)C)c2)on1	–	inconclusive: -30.6% [inhibitor]
O=c1c(C(c2ccc(Br)cc2)c2c(O)nc3n(c2=O)CCS3)c(O)nc2n1CCS2	inconclusive: 28.2 µM [inhibitor, single point]	–
CCOC(=O)c1c(NC(=O)c2noc3c2CC(C)CC3)sc(C)c1C (centres undefined)	inactive	–
Cc1ccc2[nH]c(C)c(CC(=O)NCc3cn4ccc(C)cc4n3)c2c1	inconclusive: 25.1 µM [inhibitor, partial curve, poor fit]	–
COc1ccc(CNC(=O)c2cc3c(N4CCCC4)nc(C)cn3n2)c(OC)c1	active: 28.2 µM	–
O=c1cc(-c2ccc(Cl)cc2)sc2nnc(-c3ccccc3F)n12	inactive	–
O=C(CSc1nc2cc(Cl)ccc2s1)Nc1ccc(C(F)(F)F)cc1	inactive	–
COc1ccccc1C1C=C(C(=O)O)Nc2c(C(=O)Nc3ccc(C)cc3)cnn21 (centres undefined)	inactive	–
N#CCCn1c(SCC(=O)Nc2ccc(N3CCCCC3)cc2)nc2ccccc21	inactive	–
CCOc1ccc(CC(=O)N2CCC3(CC2)N=C(c2ccc(Cl)cc2)NO3)cc1	active: 15.8 µM	–
COc1ccc(C)cc1NC(=O)Cn1ccn2nc3c(c2c1=O)CCCC3	inconclusive: 28.2 µM [inhibitor, partial curve]	–
